Experimental data published in PubChem BioAssay AID1768 (National Center for Advancing Translational Sciences (NCATS), 2009).
The campaign covered roughly 270,000 compounds. About 620 (0.23%) were called active. The inconclusive results got no clear call from the source; some entries with a clear call stand among them for comparison. Calls follow the shape of the dose curve; as a rule, active = well fitted inhibition curve with a large enough effect in the polarisation, with a control signal flat (not every such curve was filed as active); inconclusive = small, poorly fitted or top-dose-only effect, or effect the other way, or a change in a side signal; inactive = no such curve, though single readings can be large or run the other way; the % refers to the polarisation. Potencies beside an inconclusive call are fits to weak or partial responses and may not hold up. A note “side channel” means that the fit belongs to a control or component signal, not to the main read-out.

target: Menin (Homo sapiens) (UniProt O00255); test: qHTS Assay for Inhibitors Targeting the Menin-MLL Interaction in MLL Related Leukemias: Competition With Texas Red Labeled MLL-derived Mutant Peptide; conditions: fluorescence polarization; FP activity change, negative = inhibition: at 61.6 µM (top of the series); as to FP activity change, negative = inhibition: % of control where 0% means no effect
Sequence of UniProt O00255 (O00255 whole entry, looked up): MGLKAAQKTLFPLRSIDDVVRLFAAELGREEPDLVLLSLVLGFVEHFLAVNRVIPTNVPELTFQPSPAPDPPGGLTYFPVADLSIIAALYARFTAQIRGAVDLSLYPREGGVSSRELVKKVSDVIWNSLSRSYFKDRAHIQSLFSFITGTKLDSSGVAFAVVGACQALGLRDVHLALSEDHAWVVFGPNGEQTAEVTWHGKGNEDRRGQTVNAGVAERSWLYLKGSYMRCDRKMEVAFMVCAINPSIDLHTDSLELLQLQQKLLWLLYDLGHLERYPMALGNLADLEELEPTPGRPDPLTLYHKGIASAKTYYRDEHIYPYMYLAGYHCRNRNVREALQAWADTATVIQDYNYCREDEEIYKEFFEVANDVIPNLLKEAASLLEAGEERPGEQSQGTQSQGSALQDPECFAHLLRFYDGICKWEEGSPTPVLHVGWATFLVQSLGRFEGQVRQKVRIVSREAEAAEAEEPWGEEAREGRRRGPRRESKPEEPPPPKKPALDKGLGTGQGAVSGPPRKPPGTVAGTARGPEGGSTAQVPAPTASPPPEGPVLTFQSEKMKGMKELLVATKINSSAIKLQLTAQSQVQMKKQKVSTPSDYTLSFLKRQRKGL
Potency is read from the fitted curve at half-maximal effect; tags tell the direction and shape of the fitted curve or compound fluorescence and quenching.

| Structure (SMILES) | Potency | FP activity change, negative = inhibition |
| --- | --- | --- |
| Cc1cccc(C(=O)Oc2ccc3ccc(O)cc3c2)c1 | inactive |  |
| NC(=O)c1ccsc1NC(=O)c1ccc2c(c1)CCCC2 | inconclusive: 22.4 µM [quencher, side channel, single point] |  |
| O=C(NC(C(=O)N/N=C/c1cc([N+](=O)[O-])ccc1O)c1n[nH]c(=O)c2ccccc12)c1ccccc1 (centres undefined) | inconclusive: 17.8 µM [quencher, partial curve] |  |
| CN(/N=C/c1cc(Br)cc(Br)c1O)c1ccccc1 | inconclusive: 11.2 µM [quencher, side channel, partial curve] |  |
| COC(=O)c1ccc(NC(=O)Nc2ccc3c(c2)OCO3)cc1 | inconclusive: 11.2 µM [quencher, side channel, partial curve] |  |
| CCCCCCCCCCOC(=O)Cn1c(COc2ccc(Cl)cc2)[n+](C)c2ccccc21 | inconclusive: 1.26 µM [fluorescent, side channel, full curve] |  |
| Cc1cccnc1NC(=S)Nc1ccc(Cl)c(Cl)c1 | inconclusive: 14.1 µM [quencher, side channel, partial curve] |  |
| Cn1c(=N)n(CC(=O)c2ccc(Cl)c(Cl)c2)c2ccccc21 | inconclusive: 15.8 µM [inhibitor, partial curve] |  |
| COc1ccc2c(C)c(C(=O)NCC(C)O)oc2c1OC (centres undefined) | inconclusive: 8.91 µM [inhibitor, partial curve, poor fit] |  |
| CC(=O)c1c(N2CCN(C)CC2)[nH]c(-c2ccccc2)nc1=S | inconclusive: 1.26 µM [inhibitor, full curve, poor fit] |  |
| CCc1cc(-c2oncc2-c2ccc(OC)cc2)c(O)cc1OC | inactive |  |
| CCOC(=O)C(=NC1CCS(=O)(=O)C1)NNc1ccc(Br)cc1 (centres undefined) | inconclusive: 14.1 µM [quencher, side channel, partial curve] |  |
| O=C(O)c1ccc(Nc2nc3ccccc3nc2NS(=O)(=O)c2cccs2)cc1 | inconclusive: 15.8 µM [quencher, side channel, partial curve] |  |
| COc1cc(/C=C/c2[nH]c(=O)[nH]c(=O)c2[N+](=O)[O-])ccc1OCCC(C)C | inconclusive: 20 µM [quencher, side channel, partial curve] |  |
| COc1ccccc1C(=O)Nc1sc(C(=O)N2CCCC2)c(C)c1C#N | inconclusive: 1.41 µM [fluorescent, side channel, full curve] |  |
| Cc1ccc(Cl)c2sc(NC(=O)C3CC3)nc12 | inconclusive: 39.8 µM [inhibitor, single point] |  |
| Cc1ccc2cc(C#N)c(NCc3ccco3)nc2c1 | inactive |  |
| COc1ccc(O)c(C(=O)c2cnn(-c3ccccc3)c2)c1 | inconclusive: 28.2 µM [quencher, side channel, single point] |  |
| CCOc1ccccc1CN1CCC(O)CC1 | inactive |  |
| Cc1nnc(SCc2nc3sc4c(c3c(=O)[nH]2)CCCC4)[nH]c1=O | inconclusive: 39.8 µM [quencher, side channel, single point] |  |

| Structure (SMILES) | Potency | FP activity change, negative = inhibition |
| --- | --- | --- |
| CC(C)c1c(C(=O)N/N=C/c2ccc(OCc3ccc(F)cc3)cc2)nnn1-c1nonc1N | inconclusive: 2.51 µM [quencher, side channel, full curve] |  |
| Cc1ccc(C)c(Nc2ccc3nonc3c2[N+](=O)[O-])c1 | inconclusive: 20 µM [inhibitor, partial curve] |  |
| Cc1nn(-c2ccc([N+](=O)[O-])cc2)c2c1C(c1ccc(OC(F)F)cc1)N1C(=N2)C(=O)Nc2ccccc21 (centres undefined) | inconclusive: 11.2 µM [quencher, side channel, partial curve] |  |
| C(=C\c1ccco1)/C1=NN(c2ccccc2)C(c2ccco2)C1 (centres undefined) | inconclusive: 28.2 µM [quencher, side channel, single point] |  |
| CN1c2ccsc2/C(=N/Nc2ccc(F)cc2)CS1(=O)=O | inconclusive: 14.1 µM [quencher, side channel, partial curve] |  |
| COCCNc1ccc(-c2n[nH]c(=O)c3ccccc23)cc1[N+](=O)[O-] | inactive |  |
| CCN(CC)S(=O)(=O)c1ccc(NC(=O)C2COc3ccccc3O2)cc1 (centres undefined) | inactive |  |
| COC(=O)C1=C(C(=O)OC)[C@@H]2N(C)c3ccccc3[C@@]23C[C@@H](C(=O)OC)N(S(=O)(=O)c2ccc(C(F)(F)F)cc2)C3=N1 |  | inactive: 0.183% [at 11.7 µM] |
| Cc1c(C2=CCN(S(=O)(=O)c3ccc(Br)cc3)CC2)c2ccccc2n1C | inconclusive: 39.8 µM [fluorescent, side channel, single point] |  |
| CC(=O)c1ccc(NC(=O)CN2CCN(CC(=O)Nc3ccc(C(C)=O)cc3)CC2)cc1 | inactive |  |
| Cc1ccc(CN2C(=O)CSC2c2ccc(F)cc2)cc1 (centres undefined) | inconclusive: 17.8 µM [fluorescent, side channel, partial curve] |  |
| CCn1cc(C(=O)NN)c(=O)c2cc(F)c(NC3CCCCC3)cc21 | inconclusive: 3.98 µM [fluorescent, side channel, partial curve] |  |
| CC(C)[C@@H](CC(=O)N[C@@H]1CCCC[C@H]1C(=O)N[C@H](CC(=O)N[C@@H](CCC(=O)O)CC(=O)O)Cc1c[nH]c2ccccc12)NC(=O)C[C@H](CO)NC(=O)[C@@H]1CCCC[C@H]1N | inactive |  |
| CCCc1cc(C(=O)Nc2cc(Cl)ccc2O)no1 | inconclusive: 39.8 µM [inhibitor, single point] |  |
| CC1=CC(=O)C2=C(C)C[C@@H]3OC(=O)[C@@H](C)[C@H]3C=C12 | inactive |  |
| CCc1ccc(C(=O)N2CCC(c3nc4ccccc4s3)CC2)cc1 | inconclusive: 25.1 µM [fluorescent, side channel, single point] |  |
| COc1cccc(C2CC(=O)N3CN(c4cccc(Cl)c4C)CSC3=C2C#N)c1OC (centres undefined) | inconclusive: 39.8 µM [quencher, side channel, single point] |  |
| O=C(/C=C/N1CCOCC1)c1ccc(-c2ccccc2)cc1 | inconclusive: 14.1 µM [quencher, side channel, partial curve] |  |
| COC(=O)c1sc(NC(=O)/C=C/c2ccccc2Cl)nc1C | inconclusive: 3.55 µM [inhibitor, full curve] |  |
| CCCCS/C(N)=N/N=C/c1ccccc1O | inconclusive: 17.8 µM [quencher, side channel, single point] |  |

| Structure (SMILES) | Potency | FP activity change, negative = inhibition |
| --- | --- | --- |
| C=C(C)c1cccc(C(C)(C)NC(=O)Nc2cccnc2)c1 | inactive |  |
| COc1ccc(-n2nnc3c(SCC(=O)c4ccccc4)ncnc32)cc1 | inconclusive: 28.2 µM [inhibitor, partial curve] |  |
| Cc1ccccc1NC(=O)CN1C(=O)N/C(=C\c2ccccc2OCc2ccc(C(=O)O)cc2)C1=O | inconclusive: 35.5 µM [inhibitor, single point] |  |
| COc1ccc(CCC(C)NCc2cccc(Br)c2)cc1 (centres undefined) | inconclusive: 11.2 µM [inhibitor, partial curve, poor fit] |  |
| CC(C)[C@H](NC(=O)c1ccccc1F)C(=O)Nc1nc2c(s1)CCCC2 | inconclusive: 25.1 µM [fluorescent, side channel, single point] |  |
| CCOC(=O)C1(Cc2cccc(OC)c2)CCN(Cc2cccn2-c2ccccn2)CC1 | inconclusive: 8.91 µM [fluorescent, side channel, full curve, poor fit] |  |
| CCOc1cc(/C=C2/C(=O)ON=C2C)cc(Br)c1O | inconclusive: 22.4 µM [quencher, side channel, single point] |  |
| COc1cc(/C=N/NC(=O)c2ccncc2)cc2c1OCO2 | inconclusive: 12.6 µM [inhibitor, partial curve] |  |
| OCCN(CCO)c1ccc2ccccc2c1 | inconclusive: 11.2 µM [inhibitor, partial curve, poor fit] |  |
| Cc1ccc(O)c(-c2cc(C(F)(F)C(F)F)[nH]n2)c1 | inconclusive: 39.8 µM [quencher, side channel, single point] |  |
| CCCCNC(=O)CCn1nc(-c2ccc(C)cc2)c2ccccc2c1=O | inconclusive: 20 µM [inhibitor, partial curve] |  |
| CCOc1ccc(/C=N/Nc2ccc(Cl)nn2)c(O)c1 | inconclusive: 11.2 µM [quencher, side channel, partial curve] |  |
| C=C(C)CNC(=S)NNC(=O)CCn1c2ccc(Cl)cc2c2cc(Cl)ccc21 | inconclusive: 17.8 µM [quencher, side channel, partial curve] |  |
| O=C(Cc1ccccc1)Nc1nc(-c2cccs2)cs1 | inconclusive: 31.6 µM [quencher, side channel, single point] |  |
| Cc1ccc2nc(-c3cccc(Br)c3)cc(C(=O)Nn3cnnc3)c2c1 | inconclusive: 17.8 µM [quencher, side channel, partial curve] |  |
| COc1cccc(CNCc2cc(OC)cc(OC)c2)c1 | inconclusive: 14.1 µM [inhibitor, partial curve, poor fit] |  |
| CCN(CC)c1ccc2cc(C(N)=O)/c(=N\NC(=O)c3ccncc3)oc2c1 | inconclusive: 35.5 µM [quencher, side channel, partial curve] |  |
| COc1cccc2sc3ccc(NCc4ccc5c(c4)OCO5)cc3c(=O)c12 | inconclusive: 25.1 µM [quencher, side channel, single point] |  |
| CC(C)(C)CC(C)(C)N=C1NS(=O)(=O)c2cc([N+](=O)[O-])ccc21 | inconclusive: 39.8 µM [quencher, side channel, single point] |  |
